From patent US20230023174A1 (Five Prime, published 2023)

Tests used:
[1] = target: T1, CTLA-4 (as used in the SPR and ELISA binding studies) (UniProt P16410 36-161, limits assumed); experiment: SPR
T1 construct: also called cytotoxic T-lymphocyte-associated antigen-4
T1 sequence (looked up): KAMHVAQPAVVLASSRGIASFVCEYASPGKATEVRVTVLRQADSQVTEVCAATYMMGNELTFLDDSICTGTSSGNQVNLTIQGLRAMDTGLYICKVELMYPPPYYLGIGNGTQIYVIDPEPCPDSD

[2] = target: T2, PD-L1 (as used in the SPR binding study) (UniProt Q9NZQ7 part only, limits assumed); experiment: SPR
T2 construct: also called programmed death-ligand 1

[3] = target: T3, CD28 (as used in the SPR binding study) (UniProt P10747 19-152, limits assumed); experiment: SPR
T3 construct: also called cluster of differentiation 28

[4] = target: T1, CTLA-4 (as used in the SPR and ELISA …); experiment: CTLA-4 binding ELISA

T2 sequence (Q9NZQ7 19-238 limits assumed): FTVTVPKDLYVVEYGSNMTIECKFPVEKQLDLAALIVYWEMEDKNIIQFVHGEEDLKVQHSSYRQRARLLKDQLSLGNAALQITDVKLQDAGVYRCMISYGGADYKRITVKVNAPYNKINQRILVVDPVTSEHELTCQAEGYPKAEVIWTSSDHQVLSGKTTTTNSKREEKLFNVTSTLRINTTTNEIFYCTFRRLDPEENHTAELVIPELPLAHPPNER
T3 sequence (P10747 19-152 limits assumed): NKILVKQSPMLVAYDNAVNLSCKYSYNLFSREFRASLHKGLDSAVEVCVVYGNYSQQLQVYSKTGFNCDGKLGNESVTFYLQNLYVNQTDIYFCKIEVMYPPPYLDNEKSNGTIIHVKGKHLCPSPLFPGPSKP

Kd [1]: 1.8 nM
Kd [2]: 183 nM
Kd [3]: > 1000 nM
EC50 [4]: 0.034 µg/mL
B1: human CD80 ECD:human IgG Fc fusion protein comprising the amino acid sequence of SEQ ID NO:5 (hCD80ECD:hIgG1Fc) (Fc fusion)
chain: VIHVTKEVKEVATLSCGHNVSVEELAQTRIYWQKEKKMVLTMMSGDMNIWPEYKNRTIFDITNNLSIVILALRPSDEGTYECVVLKYEKDAFKREHLAEVTLSVKADFPTPSISDFEIPTSNIRRIICSTSGGFPEPHLSWLENGEELNAINTTVSQDPETELYAVSSKLDFNMTTNHSFMCLIKYGHLRVNQTFNWNTTKQEHFPDN[human IgG1 Fc with changes not spelt out]
notes: also called CD80 ECD-Fc fusion protein; Human CD80 ECD Human Fc IgG1 WT
